# Among all 340,000 compounds or so, about 12,000 (3.5%) were called active. Inconclusive means that the source gave no clear call. Such entries were picked first, then a sample of the others. Calls follow the shape of the dose curve; as a rule, active = well fitted inhibition curve with a large enough effect; inconclusive = small, poorly fitted or top-dose-only effect, or another doubt; inactive = no such curve, though single readings can be large or run the other way. Potencies of inconclusive entries are left out as doubtful fits.
# Assay: qHTS Assay for Inhibitors of Hepatitis C Virus (HCV)
# Settings: Huh7.5.1 HCVcc-Cre (HCVcc is cell-culture hepatitis C virus) infection, luciferase reporter, 44 h; series mostly up to 41.8 µM
# How it was run: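 1,000 cells/well; 4 h culture; + compound; + HCVcc-Cre (~0.5 moi); 44 h; luciferase substrate, RT 15 min; read 15 sec.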
# Potency is read from the fitted curve at half-maximal effect; tags tell the direction and shape of the fitted curve.
row,SMILES,Potency
1,COc1cc(OC)c(C2=NOC(C(=O)NCc3ccc4c(c3)OCO4)C2)cc1Cl (stereo not given),"inconclusive [inhibitor, single point]"
2,NCCc1ccc(OCc2ccccc2)c(OCc2ccccc2)c1,active: 7.94 µM
3,COc1ccc(S(=O)(=O)CCC(=O)N2c3ccccc3CC2C)cc1 (stereo not given),inactive
4,CN(Cc1cccc(Cl)c1Cl)c1ccc(S(=O)(=O)N2CCCCC2)cc1[N+](=O)[O-],active: 11.2 µM
5,C=CC(=O)NC(NC(=O)C=C)c1ccccc1F,inactive
6,FC(F)(F)c1cc(-c2cccs2)n[nH]1,"inconclusive [inhibitor, single point]"
7,COc1ccc2[nH]c(C(=O)N3CCN(Cc4ccccc4)CC3)cc2c1OC,"inconclusive [inhibitor, single point]"
8,COc1ccc2ccn(C)c2c1,"inconclusive [inhibitor, partial curve, poor fit]"
9,CCNC(=O)/C(C#N)=C/c1c(N2CCN(c3cccc(Cl)c3)CC2)nc2c(C)cccn2c1=O,"inconclusive [inhibitor, single point]"
10,Oc1ccc2ccccc2c1C=NNc1ccccn1,active: 3.16 µM
11,CCN(c1ccccc1)S(=O)(=O)c1ccc(C(=O)NC2CCN(Cc3ccccc3)CC2)cc1,"inconclusive [inhibitor, partial curve]"
12,Nc1nc(NCc2ccc(Cl)cc2)nc(NCCO)c1[N+](=O)[O-],"inconclusive [inhibitor, single point]"
13,CCn1c(-c2ccc(C(C)(C)C)cc2)n[nH]c1=S,"inconclusive [inhibitor, single point]"
14,COc1ccc(NC(=O)CN(C)C(=O)Cc2c[nH]c3ccccc23)cc1,inactive
15,CC(c1nccs1)N(C)C(=O)CCc1nnc(Cc2c[nH]c3ccccc23)o1 (stereo not given),inactive
16,CC(C)c1ccccc1-n1c(SCC(=O)c2ccc3c(c2)NC(=O)CO3)nc2ccccc2c1=O,active: 12.6 µM
17,O=C(CN1c2ccccc2Sc2ccccc21)NNC(=O)Nc1ccc(Cl)c(Cl)c1,"inconclusive [inhibitor, single point]"
18,CCCCn1c(C(C)NC(=O)c2cccs2)nc2ccccc21 (stereo not given),"inconclusive [inhibitor, single point]"
19,Cc1nc(-c2cccnc2)sc1C(=O)Nc1cccc(C(F)(F)F)c1,inactive
20,Cc1cc(C)c2c(N)c(C(=O)Nc3ncc(C)s3)sc2n1,"inconclusive [inhibitor, partial curve]"
21,N#Cc1ccc(C(=O)Nc2nnc(-c3cccs3)o2)cc1,"inconclusive [inhibitor, single point]"
22,Cc1ccc(NC(=O)CSc2nnc(-c3ccccn3)n2N)cc1F,"inconclusive [inhibitor, single point]"
23,CCCSc1ccc([C@@H]2[C@H]3C(=O)N(CC)C(=O)[C@H]3[C@]3(C(=O)OC)CCCN23)cc1,inactive

row,SMILES,Potency
1,CC1=CN(S(=O)(=O)c2ccc(C)cc2)C[C@@H]2c3ccccc3N(S(=O)(=O)c3ccc(C)cc3)[C@H]12,"inconclusive [inhibitor, single point]"
2,Cn1cc(/C=C/C(=O)N2CCCC(C(=O)c3cccc4ccccc34)C2)cn1 (stereo not given),inactive
3,COC(=O)N[C@@H]1C[C@H]2[C@@H]3CC[C@H]4C[C@@H](OC)CC[C@]4(C)[C@H]3CC[C@@]12C,"inconclusive [inhibitor, single point]"
4,O=[N+]([O-])c1nn(-c2ccc(Cl)cc2)n(O)c1=NCc1ccncc1,"inconclusive [inhibitor, single point]"
5,Cc1cc2nn(-c3cccc4ccccc34)nc2cc1NC(=O)c1cccs1,"inconclusive [inhibitor, partial curve]"
6,CN(CC(=O)Nc1cccc(F)c1)C(=O)c1ccc(-c2ccc(Cl)cc2)o1,"inconclusive [inhibitor, single point]"
7,COc1cc(S(=O)(=O)N2CCC(c3nc4ccccc4s3)CC2)ccc1S(=O)(=O)NC1CCCC1,"inconclusive [inhibitor, single point]"
8,CC(C)CNC(=O)c1cc(=O)[nH]c2ccc(S(=O)(=O)Nc3ccc(F)cc3)cc12,"inconclusive [inhibitor, single point]"
9,O=C(Nc1nnc(-c2cccnc2)o1)c1cccc(Cl)c1,"inconclusive [inhibitor, full curve, poor fit]"
10,Cn1c(=O)c2c(nc(NCCNC(=O)c3ccco3)n2Cc2ccccc2)n(C)c1=O,"inconclusive [inhibitor, single point]"
11,CCOC(=O)c1cnc2c(cnn2C)c1NCCC(O)C(F)(F)F (stereo not given),"inconclusive [inhibitor, single point]"
12,COc1ccc(-c2csc3ncn(Cc4ccccc4)c(=O)c23)cc1,"inconclusive [inhibitor, partial curve]"
13,CC(=O)CSc1ccc(-c2nc3ccccc3[nH]2)cn1,"inconclusive [inhibitor, single point]"
14,O=c1oc2ccccc2cc1-c1nc(-c2cccs2)cs1,inactive
15,CCOc1ccc(Br)cc1CSC(=N)N,active: 11.2 µM
16,COc1cc(CNCCN2CCOCC2)ccc1OCc1c(Cl)cccc1Cl,"inconclusive [inhibitor, single point]"
17,N#C/C(=C\c1ccc(-c2ccc([N+](=O)[O-])cc2)o1)C(=O)Nc1nc(-c2cccs2)cs1,active: 10 µM
18,O=C(CCC(=O)NNC(=O)COc1ccc(Br)cc1Br)NCc1ccccc1,inactive
19,CCN(CC)C(=O)COc1ccc2c(-c3ccccc3)cc(=O)oc2c1,inactive
20,CC(C)c1nc(NCCO)c(C#N)c2c1CCCC2,"inconclusive [inhibitor, partial curve]"
21,Cc1cccc(S(=O)Cc2ccc(C(=O)N3CCOCC3)o2)c1 (stereo not given),inactive
22,CCOC(=O)c1c(C)nc2c(c1-c1cc(OC)ccc1OC)C(=O)c1ccccc1-2,"inconclusive [inhibitor, partial curve]"

# Source: PubChem BioAssay AID651820 (National Center for Advancing Translational Sciences (NCATS), 2012)
